# From the supplement of paper PMC11417369
# The other results are listed elsewhere or left out.
# System: PfAP2-HC AP2 domain (GST-tagged)
# Experiment: gcPBM binding intensity (ln(normalized median fluorescence intensity)); higher = stronger DNA binding
# Outline: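 Binding intensity is the highest Masliner-normalised natural-log median intensity over replicate spots in either probe orientation. To obtain it, GST-tagged P. falciparum DNA-binding domains made in E. coli were incubated for 1 h on an Agilent 4 × 180k array of primer-extended double-stranded 36-bp intergenic genomic probes plus negative controls. Detection used Alexa488 anti-GST antibody with scanning at 488 nm.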
row,Sequence,gcPBM binding intensity (ln)
1,AAAGGTTCACATTATATAGTTATGTAATATATATGT [CACACA_negctrl_site542],9.67
2,CTCTGTTGTCTTAGTTGTACAATAGAAAAAAATAAT [XGTACX_site7043],9.51
3,TCTTTTAAACAGTACACACACACATCTATATTTATA [CACACA_site6559],10.2
4,ATATATATATATATATGTACATATTGTATTAATTAT [XGTACX_site1919],9.82
5,TTTTCATATTATAGTGCACACAAAAATATATATATG [CACACA_site8929],9.68
6,TAAAATATATATATGTGTACATAACATATAATTTTT [XGTACX_site1725],9.57
7,TTATTTAGTATATTATGTACATACAATGCCTGGGAA [XGTACX_site4578],9.57
8,AGTATAAAAATATATTTACACACTATATATATCGAA [CACACA_site8494],9.8
9,ATATGTTACAGACACACACACACATAAAAAAACAAA [CACACA_site3248],11.1
10,TATTGTTGTTCATGTACACACTATAATAAAAGCAAT [CACACA_site6148],9.62
11,AGGTACTTTTTTAAAACACACATATAACATATACAC [CACACA_site6629],9.83
12,ACCCCCAATACGGAAACACACAAGTTATTTTATCAT [CACACA_site8874],10
13,AATTAGATTTACTGAAGTACTTAATTTATTTTATTA [XGTACX_site3407],9.78
14,AATAATCTATATTGTACACACAAAATGGGAAAAAAA [CACACA_site6969],9.99
15,AAAAAAGGAAAAGATACACACCGTAAATTAAAATTT [CACACA_site5908],10.2
16,GAAGGAATATACAATTGTACTTGGCAAAAAAAAAAA [XGTACX_site1884],9.6
17,ATATATTTATATATTACACACAATATTGTACAGATA [CACACA_site8215],9.78
18,AAATACTTGTCATATTGTACATGTTTGTGATATATA [XGTACX_site3185],9.6
19,GTTAAGAATATATAATGTACTTATTTTAATATAGTA [XGTACX_site6088],9.49
20,TTAAATGAAAAATGGGGTACATATATACAAATATAT [XGTACX_site5931],9.66
21,TGTTTATTTTTAAAAAGTACATATATAAAAAATATC [XGTACX_site4902],9.28
22,ATAATTTGGAAACACACACACACACCCACATATATA [CACACA_site2286],10.5

row,Sequence,gcPBM binding intensity (ln)
1,TGATTATACGCACGCGCACACACAACCAAAAAAAAA [CACACA_site3537],10.2
2,AAAAAAAAATACTACTGTACTTTTTTTGGACATCTA [XGTACX_site1096],9.42
3,AATTATAATTAATAGAGTACTGAATATATATATATA [XGTACX_site8683],9.89
4,TTCCCTTTTTTTATTTGTACTTATCTTTTAAATAAT [XGTACX_site2497],9.89
5,AGCATTTTTCATTTTGCACACATGTTTTATGTGTAT [CACACA_site3454],10
6,GCTTCTTAGTATACTTTATAAAATATATATTAAATA [XGTACX_negctrl_site57],9.58
7,TAAAATATAATAAAATGTACACGCATGCAATAGAAT [XGTACX_site7434],10.5
8,ATATCGGGTGCATTAACACACATTTATTTGAATAAA [CACACA_site2350],9.65
9,TTTATAAATATATATACACACACATATATATTATAT [CACACA_site8099],10.1
10,ATATATCATAATAGAGGTACACATATTATATATATA [XGTACX_site782],9.68
11,ATATTAAATATAATTTGTACGCATTTTTTTTTTTTT [XGTACX_site1910],9.56
12,ATATACATATATATGGGTACATATATTAATATATAT [XGTACX_site8358],9.77
13,ATTTTGAAAAATAAAAGTACATATAATATATCTACA [XGTACX_site7185],9.29
14,TTAACATATTATAAGTGTACATATTTATAAACAAGA [XGTACX_site8806],9.71
15,TCTGTTAATATTTATACACACATATTTATTTATATA [CACACA_site6658],9.86
16,CACTCCATATTATACACACACACAAATGAAAAAAAT [CACACA_site3019],10.8
17,TTTAGATATATGGTAGTGCATAATAAAAATATAGCC [GTGCAC_site9449],9.57
18,AAAAAAAAAAAAAAGACACACATATATATATATATA [CACACA_site633],9.63
19,AATATTACAAAATATTGTCCGTACAAATTTTTAATA [XGTACX_site8129],9.44
20,GATGATAAAATATGTACACACAGTTTATACATTTTG [CACACA_site4055],9.97
21,TTTTTGTATTCTACCTTAACAATCTTAAAGATTTTT [CACACA_negctrl_site1157],9.53
22,TGATGGTTACGTTTATGTACACATTACAGTTAGTAT [XGTACX_site998],9.75
